The record followed here is publication PMC12136788.

To fix the notation:
T1: UNK ZnF1-6 (called full-length) (human, UniProt Q9C0B0 30-357)
T1 sequence: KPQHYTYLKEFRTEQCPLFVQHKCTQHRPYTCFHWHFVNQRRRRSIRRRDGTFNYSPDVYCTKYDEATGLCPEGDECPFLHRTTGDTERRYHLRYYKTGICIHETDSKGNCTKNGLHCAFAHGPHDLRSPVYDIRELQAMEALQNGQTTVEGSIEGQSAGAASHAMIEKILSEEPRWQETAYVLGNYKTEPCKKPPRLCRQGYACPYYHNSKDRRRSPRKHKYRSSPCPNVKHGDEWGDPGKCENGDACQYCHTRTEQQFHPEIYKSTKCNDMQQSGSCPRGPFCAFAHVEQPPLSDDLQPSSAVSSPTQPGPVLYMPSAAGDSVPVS

B1: chr16:50751694:50751795:+|CDS|ENSG00000083799|unk|total|mutant (ssRNA)
RNA: GGGAGUUCUACAGUCCGACGAUCGCUUUUUCAGUGUGAUGAAGAUUGUGGCGUGUUUGUUGCAUUGGACAAGCCCGAACUCACCGAAGAUGAUGACACUGCAUUGGAAAGUGAUUACGCAGGUCCUGGGGACACAAUGCAGGUCAACAGAGGAUUGAGCAUCA
B2: chr6:138432586:138432687:-|CDS|ENSG00000135540|unk|total|mutant (ssRNA)
RNA: GGGAGUUCUACAGUCCGACGAUCGGAGCCCUGGGAAUACAAAUCCUCAGGUAAUGGAAGGGCAUCCCCCCUGAAGCCGCAUUCCGCAACUCCUGGCUAUUCCACUCCCACAAGUAACAUGAGCAGCUGCAGUUUGGACCAAACCAACAGAGGAUUGAGCAUCA
B3: chr10:27170558:27170670:+|CDS|ENSG00000120539|unk|total|mutant (ssRNA)
RNA: GGGAGUUCUACAGUCCGACGAUCCUUAUGUGUGAACUCGAUGAAGACUGUGAAAAGAACCGUAAGAGGGACUACUUAAGUUCCCGUUUUCUAUGUUCUGAUGAUGACCGAGCUUCUAAAAAUAUUUCUAUGAACUCUGAUUCACAACAGAGGAUUGAGCAUCA
B4: chr16:30603633:30603734:-|3pUTR|ENSG00000156853|unk|total|mutant (ssRNA)
RNA: GGGAGUUCUACAGUCCGACGAUCGUUAAGUACCACAUUCUCCUCUAAACCUUGCCUACGACAUGUUUAAUACUUCAUCUACACCGCAGCCCUUCAGAUAAUCACAACCACUUUGCCCCCAAGUUUUCAGGUUAAGCCGCAUGACAACAGAGGAUUGAGCAUCA
B5: chr7:27100353:27100725:-|three_prime_utr|ENSG00000105996|control|control|control (ssRNA)
RNA: GGGAGUUCUACAGUCCGACGAUCUUUUUUAUUUUCUUCUUGACCUACCCCUUCCCUCCUUUAAGUGUUGAGGAUUUUCUGUUUAGUGAUUCCCUGACCCAGUUUCAAACAGAGCCAUCUUUUACAGAUUAUUUUGGAGUUUUACAACAGAGGAUUGAGCAUCA
B6: chr15:40213340:40213445:+|CDS|ENSG00000156970|unk|FALSE|unique (ssRNA)
RNA: GGGAGUUCUACAGUCCGACGAUCACACAGUGAAUAUAUUACCCAUGAAAUAACAGUGUUGAUUAUUUAUAACCUUUUGACAAUAGUGGAGAUGCUACACAAAGCAGAAAUAGUCCAUGGUGACUUGAGUCCAAGGUGUCUGAUCAACAGAGGAUUGAGCAUCA
B7: chr11:118750849:118750950:-|3pUTR|ENSG00000110367|msi1|total|mutant (ssRNA)
RNA: GGGAGUUCUACAGUCCGACGAUCAUUCCCGAAAGUACUUUGGCCUCGUGCUGCCGAGAGCAGAUUUCUAUGGUACCCUGUGUCCGUAAAGGGGCCCAGAAAUCUGGGAUGUACUGUUUGCUGCCACACUGUCUCAUCCCGUACCAACAGAGGAUUGAGCAUCA
B8: ENSG00000124766:be:win_1701|3pUTR|ENSG00000124766|bound_else_gene|NA|bound_elsewhere_windowed (ssRNA)
RNA: GGGAGUUCUACAGUCCGACGAUCCUGUGAUUGUUGUUAUUGAUGUUGUUGUUGAUGGCAAAAAAAAAAAAGCGACUUCGAGUUUGCUCCCCUUUGCUUGAAGAGACCCCCUCCCCCUUCCAACGAGCUUCCGGACUUGUCUGCCAACAGAGGAUUGAGCAUCA
B9: ENSG00000144824:stop:overlap|stop_codon|ENSG00000144824|stop_codon|NA|stop_codon (ssRNA)
RNA: GGGAGUUCUACAGUCCGACGAUCUGCGGAUCUGGAUGGAUGUUAUAGUUACGGGGGCAGAAGGUUACACUCACUUCUUGUUGUAGUGAACUGAGGCAACAGUCCACUUCAGGGCAGACGGCAAUAAUCUCUUACAAGAAUGAACAACAGAGGAUUGAGCAUCA
B10: chr10:119167843:119167906:-|3pUTR|ENSG00000165672|msi1_unk|FALSE|overlapping (ssRNA)
RNA: GGGAGUUCUACAGUCCGACGAUCUGCAUGAUCCCUCAUCCCUGAAAUUGAGUUUAUGUAGUCAUUUUACUUAUUUUAUUCAUUAGCUAACUUUGUCUAUGUAUAUUUCUAGAUAUUGAUUAGUGUAAUCGAUUAUAAAGGAUACAACAGAGGAUUGAGCAUCA
B11: chr1:112701350:112701454:-|3pUTR|ENSG00000155366|unk|FALSE|unique (ssRNA)
RNA: GGGAGUUCUACAGUCCGACGAUCGGCUCCAUGCUGAAGGCUCCCAUUUUCAGUUCCCUCCUGCCCAGGACUGCAUUGUUUUCUAGCCCCGAGGUGGUGGCACGGGCCCUCCCUCCCAGCGCUCUGGGAGCCACGCCUAUGCCCCAACAGAGGAUUGAGCAUCA
B12: ENSG00000110756:stop:overlap|stop_codon|ENSG00000110756|stop_codon|NA|stop_codon (ssRNA)
RNA: GGGAGUUCUACAGUCCGACGAUCGGGCCUUGAUACAAAGCAUGCUUGAAAAAUGCGAUCGGUUUCUCUGGUCCCAGCAGGCCUAGUGGGAGAAGAUUCAGCAGGAUGUCAUGACAUUUUGAGAAAAACUAAAUCAUGCUCCUGCAACAGAGGAUUGAGCAUCA
B13: chr20:50583650:50583751:+|3pUTR|ENSG00000196396|msi1|FALSE|unique (ssRNA)
RNA: GGGAGUUCUACAGUCCGACGAUCUUCCUAAGCCUGUUGCUGAAGUCAUUGUCGCUCAGCAAUAGGGUGCAGUUUUCCAGGAAUAGGCAUUUGCCUAAUUCCUGGCAUGACACUCUAGUGACUUCCUGGUGAGGCCCAGCCUGUCAACAGAGGAUUGAGCAUCA
B14: ENSG00000197555:stop:overlap|stop_codon|ENSG00000197555|stop_codon|NA|stop_codon (ssRNA)
RNA: GGGAGUUCUACAGUCCGACGAUCACGCCUCGGACAAGCUGAAGAAGUUCACAGAAUGGGUCUUCAACACCAUAGACAUGAGCUAGGGAAGGCUGAGGAGGACAGGAGAAGGGCCCAGACACUCCCUCCAGUGAGUGUCCUGCACAACAGAGGAUUGAGCAUCA
B15: chr4:183512276:183512377:+|3pUTR|ENSG00000168556|unk|total|mutant (ssRNA)
RNA: GGGAGUUCUACAGUCCGACGAUCCUGCUUGUUUUGGGAAAAAAAAAUGCUUUUUUUCUCUUCCCGCUCUCCUGUGUGACUUUCCGGCAUGUCAUUUCACCUUGUCUGGGUGUCAGGUCAUUCACCUGUAAAAUGAGUUGGCUUCAACAGAGGAUUGAGCAUCA
B16: chr2:15946816:15946917:+|3pUTR|ENSG00000134323|unk|total|mutant (ssRNA)
RNA: GGGAGUUCUACAGUCCGACGAUCUAUAUGCCUUUUUCCCCGCCUGUUUCUUCCUGUUAAUGUAUUUGUUCAUGUUUGGUGCACCGAACUGGGUAAAUGCAAAGUUCUGUGUUUAAUUUCUUCAAAAUGUAUAUAUUCCGUGCUCAACAGAGGAUUGAGCAUCA
B17: chr12:131960804:131960905:+|CDS|ENSG00000183495|unk|FALSE|bound_elsewhere (ssRNA)
RNA: GGGAGUUCUACAGUCCGACGAUCCCCUCAGCAAGCCCGUCGGCACCCCAGUCUCCCAGUUAUCAAAUACAGCAGCUGAUGAAUAGGAGCCCUGCAACCGGGCAGAACGUGAACAUCACCCUGCAGAGCGUGGGCCCUGUCGUCCAACAGAGGAUUGAGCAUCA
B18: ENSG00000111530:stop:overlap|stop_codon|ENSG00000111530|stop_codon|NA|stop_codon (ssRNA)
RNA: GGGAGUUCUACAGUCCGACGAUCUCUUUGAAAGUAUCCAGAAAGAUUCAUCAUCUACUAACUUGGAAUCAAUGGACACUAGUUAGAUGUUUGUUCACCAUGGGGACCAUUACAUAUGACCAUACAAUGCACUGAAUUGACAGGCAACAGAGGAUUGAGCAUCA
B19: chr17:18209558:18209659:+|3pUTR|ENSG00000091542|msi1|FALSE|unique (ssRNA)
RNA: GGGAGUUCUACAGUCCGACGAUCGGUAGCUUCUAUCCACUCAGAUCCUGGAAGGCAGCAAGGUUUUGUGGAUCUAGAUUCAUUAGGAAUGUCUUCUUGUCAGCCAGGCCAGGACCCGGGCUUGCCAAGAGCAGAGGCCCUCCCCAACAGAGGAUUGAGCAUCA
B20: chr10:71816509:71816622:-|3pUTR|ENSG00000197746|msi1_unk|total|mutant (ssRNA)
RNA: GGGAGUUCUACAGUCCGACGAUCUGCCUACAUGUCCCUGGCUGUUGAGGCGCUGCUUCAGCCUGCACCCCUCCCUUGUCUCACCGAUGCUCCUUUUGACCUUUUCAAAUAAAUAUGGAUGGCGAGCUCCCCGGCCUCUGGCUUCAACAGAGGAUUGAGCAUCA
B21: ENSG00000257103:stop:overlap|stop_codon|ENSG00000257103|stop_codon|NA|stop_codon (ssRNA)
RNA: GGGAGUUCUACAGUCCGACGAUCGUCGUGGGGGCCGGGAGUUUGCGGAUUUUGAAUAUAGGAAAGACAACAAAGUUGCUGCAUAGUCUACAAACAAGUCUCUGAAAAUAGGUGAAUUUCUAGCUCUUCAUGGUCCUGAACAUUCAACAGAGGAUUGAGCAUCA
B22: chr1:113797602:113797710:-|CDS|ENSG00000081019|unk|FALSE|bound_elsewhere (ssRNA)
RNA: GGGAGUUCUACAGUCCGACGAUCUUUAUGACUCACCAGGAACAUUCUAUUCGUAGAAAUUUCUUAAAAACAGGUACUAAAUUUAGCAACUUUAUUCAUGAGGAACACCAGUCCAAUGGUGGUGCUCUUGUCCUUCAUGCUUACCAACAGAGGAUUGAGCAUCA

This is one part of the list.

The target in the assay is T1, UNK ZnF1-6 (called full-length). The assay is described as follows: nsRBNS (natural sequence RNA bind-n-seq); RBNS binding buffer (assumed for nsRBNS): 25 mM Tris pH 7.5, 150 mM KCl, 3 mM MgCl2, 0.01% Triton X-100, 500 ug/ml BSA, 20 U/ml SUPERase-In, 4 C; UNK is unkempt and MSI1 is Musashi-1; names of the RNAs are library labels; protein concentration not given here; high values mean tight binding.
As for B1, the binding signal came out at 0.721 enrichment R. Turning to B2, the binding signal was found to be 0.798 enrichment R. B3 had a binding signal of 0.313 enrichment R.

Consider B4, for which the binding signal is 0.83 enrichment R. Next, B5: 1.15 enrichment R; B6: 0.529 enrichment R. The molecule B7 came in with a binding signal of 0.836 enrichment R. Under B8 stands 0.598 enrichment R; under B9, 1.02 enrichment R. B10 gave a binding signal of 1.29 enrichment R. Next, B11: 0.843 enrichment R. Next, B12: 0.578 enrichment R; B13: 0.407 enrichment R; B14: 0.602 enrichment R. Under B15 stands 0.352 enrichment R; under B16, 0.563 enrichment R; under B17, 1.12 enrichment R.

Turning to B18, the binding signal is 0.937 enrichment R.

B19: the binding signal turned out to be 1.15 enrichment R.

In the case of B20, the binding signal is 1.17 enrichment R. Next, B21: 0.381 enrichment R; B22: 0.721 enrichment R.
